Measurements reported in the supplement of paper PMC8728848.
This is one part of the list.

Tests used:
Assay in all cases: glycan array binding signal (z-score within array); higher = stronger binding
Details in all cases: glycan notation: IUPAC condensed, linker removed
GlcA(b1-3)GlcNAc = molecular target: GlcA(b1-3)GlcNAc
Procedure, shortened: (§1)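 The Consortium for Functional Glycomics database supplied 3228 glycan arrays, of which those lacking an available protein sequence were dropped. The binding signal, a within-array Z-score, was averaged across arrays of the same protein sequence and across linkers. Negative scores can be read as non-binding.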

GlcA(b1-6)Gal = molecular target: GlcA(b1-6)Gal
Procedure, shortened: as §1

[1] = molecular target: GlcNAc(a1-3)Gal(b1-4)GlcNAc
Procedure, shortened: as §1

[2] = molecular target: GlcNAc(a1-6)Gal(b1-4)GlcNAc
Procedure, shortened: as §1

[3] = molecular target: GlcNAc(b1-2)Gal(b1-3)GalNAc
Procedure, shortened: as §1

[4] = molecular target: GlcNAc(b1-2)Man(a1-3)[GlcNAc(b1-2)Man(a1-6)]Man(b1-4)GlcNAc(b1-4)GlcNAc
Procedure, shortened: as §1

GlcNAc(b1-3)Gal = molecular target: GlcNAc(b1-3)Gal
Procedure, shortened: as §1

[5] = molecular target: GlcNAc(b1-3)Gal(b1-3)GalNAc
Procedure, shortened: as §1

GlcNAc(b1-3)Gal(b1-4)Glc = molecular target: GlcNAc(b1-3)Gal(b1-4)Glc
Procedure, shortened: as §1

[6] = molecular target: GlcNAc(b1-3)Gal(b1-4)GlcNAc
Procedure, shortened: as §1

[7] = molecular target: GlcNAc(b1-3)Gal(b1-4)GlcNAc(b1-3)Gal(b1-4)GlcNAc
Procedure, shortened: as §1

GlcNAc(b1-3)GalNAc = molecular target: GlcNAc(b1-3)GalNAc
Procedure, shortened: as §1

GlcNAc(b1-3)Man = molecular target: GlcNAc(b1-3)Man
Procedure, shortened: as §1

[8] = molecular target: GlcNAc(b1-3)[GlcNAc(b1-4)][GlcNAc(b1-6)]GlcNAc
Procedure, shortened: as §1

[9] = molecular target: GlcNAc(b1-3)[GlcNAc(b1-6)]Gal(b1-4)GlcNAc
Procedure, shortened: as §1

[10] = molecular target: GlcNAc(b1-3)[GlcNAc(b1-6)]GalNAc
Procedure, shortened: as §1

[11] = molecular target: GlcNAc(b1-4)Gal(b1-4)GlcNAc
Procedure, shortened: as §1

GlcNAc(b1-4)GlcNAc = molecular target: GlcNAc(b1-4)GlcNAc
Procedure, shortened: as §1

[12] = molecular target: GlcNAc(b1-4)GlcNAc(b1-4)GlcNAc
Procedure, shortened: as §1

[13] = molecular target: GlcNAc(b1-4)GlcNAc(b1-4)GlcNAc(b1-4)GlcNAc(b1-4)GlcNAc
Procedure, shortened: as §1

[14] = molecular target: GlcNAc(b1-4)GlcNAc(b1-4)GlcNAc(b1-4)GlcNAc(b1-4)GlcNAc(b1-4)GlcNAc
Procedure, shortened: as §1

[15] = molecular target: GlcNAc(b1-4)[GlcNAc(b1-6)]GalNAc
Procedure, shortened: as §1

[16] = molecular target: GlcNAc(b1-6)Gal(b1-4)GlcNAc
Procedure, shortened: as §1

GlcNAc(b1-6)GalNAc = molecular target: GlcNAc(b1-6)GalNAc
Procedure, shortened: as §1

GlcNAc3Prop(b1-4)GlcNAc = molecular target: GlcNAc3Prop(b1-4)GlcNAc
Procedure, shortened: as §1

Kdn(a2-3)Gal(b1-3)GlcNAc = molecular target: Kdn(a2-3)Gal(b1-3)GlcNAc
Procedure, shortened: as §1

Kdn(a2-3)Gal(b1-4)GlcNAc = molecular target: Kdn(a2-3)Gal(b1-4)GlcNAc
Procedure, shortened: as §1

[17] = molecular target: Man(a1-2)Man(a1-2)Man(a1-3)Man
Procedure, shortened: as §1

[18] = molecular target: Man(a1-2)Man(a1-2)Man(a1-6)[Man(a1-3)]Man
Procedure, shortened: as §1

Man(a1-2)Man(a1-3)Man = molecular target: Man(a1-2)Man(a1-3)Man
Procedure, shortened: as §1

[19] = molecular target: Man(a1-2)Man(a1-3)[Man(a1-2)Man(a1-6)]Man
Procedure, shortened: as §1

[20] = molecular target: Man(a1-2)Man(a1-3)[Man(a1-2)Man(a1-6)]Man(a1-6)[Man(a1-2)Man(a1-2)Man(a1-3)]Man
Procedure, shortened: as §1

[21] = molecular target: Man(a1-2)Man(a1-3)[Man(a1-2)Man(a1-6)]Man(a1-6)[Man(a1-2)Man(a1-2)Man(a1-3)]Man(b1-4)GlcNAc(b1-4)GlcNAc
Procedure, shortened: as §1

[22] = molecular target: Man(a1-2)Man(a1-3)[Man(a1-6)]Man(a1-6)[Man(a1-2)Man(a1-3)]Man(b1-4)GlcNAc(b1-4)GlcNAc
Procedure, shortened: as §1

[23] = molecular target: Man(a1-2)Man(a1-6)[Man(a1-3)]Man(a1-6)[Man(a1-2)Man(a1-2)Man(a1-3)]Man
Procedure, shortened: as §1

[24] = molecular target: Man(a1-2)Man(a1-6)[Man(a1-3)]Man(a1-6)[Man(a1-2)Man(a1-2)Man(a1-3)]Man(b1-4)GlcNAc(b1-4)GlcNAc
Procedure, shortened: as §1

Man(a1-3)[Man(a1-6)]Man = molecular target: Man(a1-3)[Man(a1-6)]Man
Procedure, shortened: as §1

B1: Angptl4 (Homo sapiens), Q9BY76 (protein)
chain: MSGAPTAGAALMLCAATAVLLSAQGGPVQSKSPRFASWDEMNVLAHGLLQLGQGLREHAERTRSQLSALERRLSACGSACQGTEGSTDLPLAPESRVDPEVLHSLQTQLKAQNSRIQQLFHKVAQQQRHLEKQHLRIQHLQSQFGLLDHKHLDHEVAKPARRKRLPEMAQPVDPAHNVSRLHRLPRDCQELFQVGERQSGLFEIQPQGSPPFLVNCKMTSDGGWTVIQRRHDGSVDFNRPWEAYKAGFGDPHGEFWLGLEKVHSITGDRNSRLAVQLRDWDGNAELLQFSVHLGGEDTAYSLQLTAPVAGQLGATTVPPSGLSVPFSTWDQDHDLRRDKNCAKSLSGGWWFGTCSHSNLNGQYFRSIPQQRQKLKKGIFWKTWRGRYYPLQATTMLIQPMAAEAAS
glycan array binding signal (z-score) (GlcA(b1-3)GlcNAc): 0.314 | glycan array binding signal (z-score) (GlcA(b1-6)Gal): 0.139 | glycan array binding signal (z-score) [1]: -0.425 | glycan array binding signal (z-score) [2]: -0.397 | glycan array binding signal (z-score) [3]: -0.021 | glycan array binding signal (z-score) [4]: -0.215 | glycan array binding signal (z-score) (GlcNAc(b1-3)Gal): 0.068 | glycan array binding signal (z-score) [5]: -0.42 | glycan array binding signal (z-score) (GlcNAc(b1-3)Gal(b1-4)Glc): 2.64 | glycan array binding signal (z-score) [6]: -0.299 | glycan array binding signal (z-score) [7]: 0.334 | glycan array binding signal (z-score) (GlcNAc(b1-3)GalNAc): -0.508 | glycan array binding signal (z-score) (GlcNAc(b1-3)Man): -0.415 | glycan array binding signal (z-score) [8]: -0.234 | glycan array binding signal (z-score) [9]: 0.501 | glycan array binding signal (z-score) [10]: -0.268 | glycan array binding signal (z-score) [11]: -0.264 | glycan array binding signal (z-score) (GlcNAc(b1-4)GlcNAc): -0.525 | glycan array binding signal (z-score) [12]: -0.25 | glycan array binding signal (z-score) [13]: 2.2 | glycan array binding signal (z-score) [14]: 1.43 | glycan array binding signal (z-score) [15]: -0.311 | glycan array binding signal (z-score) [16]: -0.277 | glycan array binding signal (z-score) (GlcNAc(b1-6)GalNAc): 0.299 | glycan array binding signal (z-score) (GlcNAc3Prop(b1-4)GlcNAc): -0.326 | glycan array binding signal (z-score) (Kdn(a2-3)Gal(b1-3)GlcNAc): 0.691 | glycan array binding signal (z-score) (Kdn(a2-3)Gal(b1-4)GlcNAc): -0.145 | glycan array binding signal (z-score) [17]: -0.655 | glycan array binding signal (z-score) [18]: -0.229 | glycan array binding signal (z-score) (Man(a1-2)Man(a1-3)Man): -0.081 | glycan array binding signal (z-score) [19]: -0.525 | glycan array binding signal (z-score) [20]: -0.291 | glycan array binding signal (z-score) [21]: 3 | glycan array binding signal (z-score) [22]: -0.165 | glycan array binding signal (z-score) [23]: 0.303 | glycan array binding signal (z-score) [24]: -0.471 | glycan array binding signal (z-score) (Man(a1-3)[Man(a1-6)]Man): -0.048
